Measured values reported in the antibiotic and cytotoxicity screens of Wong et al. (2023).
The other results are listed elsewhere or left out.

Legend:
HSkMC = human skeletal muscle cells; experiment: cytotoxicity call (relative viability < 0.9); details: 10 µM
HepG2 = experiment: cytotoxicity call (relative viability < 0.9); details: 10 µM
S. aureus RN4220 = experiment: growth inhibition call (relative growth <= 0.2); details: 50 µM

CN(C)CCCCCCNC(=O)[C@H]1C[C@H]2C(=O)N[C@@H](CCCC[N+](C)(C)C)C(=O)N2[C@H]1c1cccc(OCCO)c1
inactive: cytotoxicity call (HSkMC) | cytotoxicity call (HepG2) | growth inhibition call (S. aureus RN4220)

Nc1nnc(SCC(=O)N2CCOCC2)[nH]1
inactive: cytotoxicity call (HSkMC) | cytotoxicity call (HepG2) | growth inhibition call (S. aureus RN4220)

C[C@H](O)C#Cc1ccc2c(c1)O[C@@H](CN(C)C)[C@H](C)CN([C@@H](C)CO)S2(=O)=O
inactive: cytotoxicity call (HSkMC) | cytotoxicity call (HepG2) | growth inhibition call (S. aureus RN4220)

C[C@@H]1CN([C@H](C)CO)C(=O)c2cc(NS(=O)(=O)c3cn(C)cn3)ccc2O[C@@H](C)CCCCO[C@@H]1CN(C)S(C)(=O)=O
inactive: cytotoxicity call (HSkMC) | cytotoxicity call (HepG2) | growth inhibition call (S. aureus RN4220)
